Assay results as given in PubChem BioAssay (Tox21).
Where “and” joins values, the source holds several entries; their conditions need not be identical. Equal entries are not always repeated. Inconclusive means that the source gave no clear call. Such entries were picked first, then a sample of the others. Where the call is inconclusive, the potency comes from a doubtful curve fit. Calls of active or inactive are those of the source. Calls follow the shape of the dose curve; as a rule, active = well fitted curve in the direction sought with a large enough effect in the repeat runs; inconclusive = weak or mixed curves; inactive = no such curve, though single readings can be large; an effect the other way counts as inactive or inconclusive.

experiment: A CellTox Green Cytotoxicity Assay to monitor cytotoxicity in HepG2 cells - 24 hour (AID 1224878); conditions: CellTox Green fluorescence; series mostly up to 76.8 µM; also: nearly all actives have a fitted effect of over 45% in size
Outline: (§1)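 HepG2 cells, 600/well, preincubated 5 h with CellTox Green dye, then exposed to Tox21 compounds in DMSO at 37 C for up to 40 h. Dead-cell DNA fluorescence read at the indicated time point.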
Potency is read from the fitted curve at half-maximal effect; tags tell the direction and shape of the fitted curve.

Row | SMILES | Potency
1 | Cc1cc2c(OCC(CNC(C)(C)C)OC(=O)c3ccccc3)cccc2[nH]1 (stereo unspecified) | inconclusive: 26.8 µM [activator, single point]
2 | NNCCc1ccccc1 | inconclusive: 21.9 µM [activator, single point]
3 | CC(CN(C)C)CN1c2ccccc2CCc2ccccc21 (stereo unspecified) | inconclusive: 26.8 µM [activator, single point]
4 | CCN(CC)CCCN(c1ccccc1)C1Cc2ccccc2C1 | active: 23.9 µM
5 | CN(C)CCOc1ccccc1Cc1ccccc1 | inconclusive: 26.8 µM [activator, single point]
6 | CCCCCCC(CCCCCCCCCCC(=O)OCC(COC(C)=O)OC(C)=O)OC(C)=O (stereo unspecified) | inactive

experiment: A CellTox Green Cytotoxicity Assay to monitor cytotoxicity in HepG2 cells - 40 hour (AID 1224879); conditions: CellTox Green fluorescence; series mostly up to 76.8 µM; also: nearly all actives have a fitted effect of over 40% in size
Outline: as §1

Row | SMILES | Potency
7 | COc1cc(N)c(Cl)cc1C(=O)NC1CCN(CCCOc2ccc(F)cc2)CC1OC (stereo unspecified) | inconclusive: 26.8 µM [activator, single point]
8 | CC(=O)Oc1ccc(C(=C2CCCCC2)c2ccc(OC(C)=O)cc2)cc1 | inactive
9 | Cc1cc2c(OCC(CNC(C)(C)C)OC(=O)c3ccccc3)cccc2[nH]1 (stereo unspecified) | inconclusive: 26.8 µM [activator, single point]
10 | NCCO | inconclusive: 61.7 µM [activator, single point]
11 | CCOC(=O)C1OC1c1ccccc1 (stereo unspecified) | inconclusive: 39.7 µM [activator, partial curve, poor fit] and inconclusive: 38.9 µM [activator, partial curve, poor fit]
12 | NNCCc1ccccc1 | inconclusive: 21.9 µM [activator, single point]
13 | CC(CN(C)C)CN1c2ccccc2CCc2ccccc21 (stereo unspecified) | active: 23.9 µM
14 | CN(C)CCOc1ccccc1Cc1ccccc1 | inconclusive: 26.8 µM [activator, single point]
15 | CC(C)(O)c1ccc(CNC(=O)c2cccnc2Oc2ccc3nonc3c2)cc1 | inactive

experiment: qHTS RealTime-Glo MT Cell Viability Assay in HEK293 cells - 0 hour (AID 1224880); conditions: RealTime-Glo luminescence; series mostly up to 76.8 µM; also: nearly all actives have a fitted effect of over 45% in size
Outline: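 600 cells/well were plated with the nonlytic NanoLuc/prosubstrate reagent, pre-incubated 5 h, then given 23 nL of compound in DMSO. Incubation at 37 C for 40 h, with luminescence from viable-cell-reduced substrate read repeatedly from 0 h.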

Row | SMILES | Potency
16 | NCCO | inconclusive: 49 µM [rising, single point]
17 | Nc1nc(N)nc(-c2ccccc2)n1 | inactive
18 | CCN(CC)CCCN(c1ccccc1)C1Cc2ccccc2C1 | inconclusive: 10.7 µM [rising, partial curve, poor fit]
19 | CC1=C(C=O)C(C)(C)CCC1 | inconclusive: 21.9 µM [rising, partial curve]
20 | CCN(CC)CCOC(=O)C(Cc1cccc2ccccc12)CC1CCCO1 (stereo unspecified) | inconclusive: 23.9 µM [rising, single point]
21 | C=COCC(C)C | inactive
